# Measured values from the supplement of paper PMC8728848.
# The list shows a part of the results.
# Key:
# Assay in all cases: glycan array binding signal (z-score within array); higher = stronger binding
# Conditions in all cases: glycan notation: IUPAC condensed, linker removed
# GlcNAc(b1-3)Gal(b1-4)Glc = molecular target: GlcNAc(b1-3)Gal(b1-4)Glc
# Summary of the method: (§1)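 From the Consortium for Functional Glycomics database, 3228 arrays were curated, keeping only those whose protein sequence was available. Binding is given as a within-array Z-score averaged across arrays sharing a protein sequence and across linkers. Negative Z-scores can be read as non-binding.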
# [1] = molecular target: GlcNAc(b1-3)Gal(b1-4)GlcNAc
# Summary of the method: as §1
# [2] = molecular target: GlcNAc(b1-3)Gal(b1-4)GlcNAc(b1-2)Man(a1-3)[GlcNAc(b1-3)Gal(b1-4)GlcNAc(b1-2)Man(a1-6)]Man(b1-4)GlcNAc(b1-4)GlcNAc
# Summary of the method: as §1
# [3] = molecular target: GlcNAc(b1-3)Gal(b1-4)GlcNAc(b1-2)Man(a1-3)[GlcNAc(b1-3)Gal(b1-4)GlcNAc(b1-2)Man(a1-6)]Man(b1-4)GlcNAc(b1-4)[Fuc(a1-6)]GlcNAc
# Summary of the method: as §1
# [4] = molecular target: GlcNAc(b1-3)Gal(b1-4)GlcNAc(b1-2)[GlcNAc(b1-3)Gal(b1-4)GlcNAc(b1-6)]Man(a1-6)[GlcNAc(b1-3)Gal(b1-4)GlcNAc(b1-2)Man(a1-3)]Man(b1-4)GlcNAc(b1-4)GlcNAc
# Summary of the method: as §1
# [5] = molecular target: GlcNAc(b1-3)Gal(b1-4)GlcNAc(b1-3)Gal(b1-4)GlcNAc
# Summary of the method: as §1
# [6] = molecular target: GlcNAc(b1-3)Gal(b1-4)GlcNAc(b1-3)Gal(b1-4)GlcNAc(b1-2)Man(a1-3)[GlcNAc(b1-3)Gal(b1-4)GlcNAc(b1-3)Gal(b1-4)GlcNAc(b1-2)Man(a1-6)]Man(b1-4)GlcNAc(b1-4)GlcNAc
# Summary of the method: as §1
# [7] = molecular target: GlcNAc(b1-3)Gal(b1-4)GlcNAc(b1-3)Gal(b1-4)GlcNAc(b1-2)Man(a1-3)[GlcNAc(b1-3)Gal(b1-4)GlcNAc(b1-3)Gal(b1-4)GlcNAc(b1-2)Man(a1-6)]Man(b1-4)GlcNAc(b1-4)[Fuc(a1-6)]GlcNAc
# Summary of the method: as §1
# [8] = molecular target: GlcNAc(b1-3)Gal(b1-4)GlcNAc(b1-3)Gal(b1-4)GlcNAc(b1-2)[GlcNAc(b1-3)Gal(b1-4)GlcNAc(b1-3)Gal(b1-4)GlcNAc(b1-6)]Man(a1-6)[GlcNAc(b1-3)Gal(b1-4)GlcNAc(b1-3)Gal(b1-4)GlcNAc(b1-2)Man(a1-3)]Man(b1-4)GlcNAc(b1-4)[Fuc(a1-6)]GlcNAc
# Summary of the method: as §1
# [9] = molecular target: GlcNAc(b1-3)Gal(b1-4)GlcNAc(b1-3)Gal(b1-4)GlcNAc(b1-3)Gal(b1-4)GlcNAc(b1-2)Man(a1-3)[GlcNAc(b1-3)Gal(b1-4)GlcNAc(b1-3)Gal(b1-4)GlcNAc(b1-3)Gal(b1-4)GlcNAc(b1-2)Man(a1-6)]Man(b1-4)GlcNAc(b1-4)GlcNAc
# Summary of the method: as §1
# [10] = molecular target: GlcNAc(b1-3)Gal(b1-4)GlcNAc(b1-3)Gal(b1-4)GlcNAc(b1-3)Gal(b1-4)GlcNAc(b1-2)Man(a1-3)[GlcNAc(b1-3)Gal(b1-4)GlcNAc(b1-3)Gal(b1-4)GlcNAc(b1-3)Gal(b1-4)GlcNAc(b1-2)Man(a1-6)]Man(b1-4)GlcNAc(b1-4)[Fuc(a1-6)]GlcNAc
# Summary of the method: as §1
# [11] = molecular target: GlcNAc(b1-3)Gal(b1-4)GlcNAc(b1-3)Gal(b1-4)GlcNAc(b1-3)Gal(b1-4)GlcNAc(b1-2)[GlcNAc(b1-3)Gal(b1-4)GlcNAc(b1-3)Gal(b1-4)GlcNAc(b1-3)Gal(b1-4)GlcNAc(b1-6)]Man(a1-6)[GlcNAc(b1-3)Gal(b1-4)GlcNAc(b1-3)Gal(b1-4)GlcNAc(b1-3)Gal(b1-4)GlcNAc(b1-2)Man(a1-3)]Man(b1-4)GlcNAc(b1-4)[Fuc(a1-6)]GlcNAc
# Summary of the method: as §1
# [12] = molecular target: GlcNAc(b1-3)Gal(b1-4)GlcNAc(b1-3)Gal(b1-4)GlcNAc(b1-3)Gal(b1-4)GlcNAc(b1-3)Gal(b1-4)GlcNAc(b1-2)Man(a1-3)[GlcNAc(b1-3)Gal(b1-4)GlcNAc(b1-3)Gal(b1-4)GlcNAc(b1-3)Gal(b1-4)GlcNAc(b1-3)Gal(b1-4)GlcNAc(b1-2)Man(a1-6)]Man(b1-4)GlcNAc(b1-4)GlcNAc
# Summary of the method: as §1
# [13] = molecular target: GlcNAc(b1-3)Gal(b1-4)GlcNAc(b1-3)Gal(b1-4)GlcNAc(b1-3)Gal(b1-4)GlcNAc(b1-3)Gal(b1-4)GlcNAc(b1-2)Man(a1-3)[GlcNAc(b1-3)Gal(b1-4)GlcNAc(b1-3)Gal(b1-4)GlcNAc(b1-3)Gal(b1-4)GlcNAc(b1-3)Gal(b1-4)GlcNAc(b1-2)Man(a1-6)]Man(b1-4)GlcNAc(b1-4)[Fuc(a1-6)]GlcNAc
# Summary of the method: as §1
# [14] = molecular target: GlcNAc(b1-3)Gal(b1-4)GlcNAc(b1-3)Gal(b1-4)GlcNAc(b1-3)Gal(b1-4)GlcNAc(b1-3)Gal(b1-4)GlcNAc(b1-2)[GlcNAc(b1-3)Gal(b1-4)GlcNAc(b1-3)Gal(b1-4)GlcNAc(b1-3)Gal(b1-4)GlcNAc(b1-3)Gal(b1-4)GlcNAc(b1-6)]Man(a1-6)[GlcNAc(b1-3)Gal(b1-4)GlcNAc(b1-3)Gal(b1-4)GlcNAc(b1-3)Gal(b1-4)GlcNAc(b1-3)Gal(b1-4)GlcNAc(b1-2)Man(a1-3)]Man(b1-4)GlcNAc(b1-4)[Fuc(a1-6)]GlcNAc
# Summary of the method: as §1
# [15] = molecular target: GlcNAc(b1-3)Gal(b1-4)GlcNAc(b1-3)Gal(b1-4)GlcNAc(b1-3)GalNAc
# Summary of the method: as §1
# [16] = molecular target: GlcNAc(b1-3)Gal(b1-4)GlcNAc(b1-3)GalNAc
# Summary of the method: as §1
# [17] = molecular target: GlcNAc(b1-3)Gal(b1-4)GlcNAc(b1-3)[GlcNAc(b1-3)Gal(b1-4)GlcNAc(b1-3)]GalNAc
# Summary of the method: as §1
# [18] = molecular target: GlcNAc(b1-3)Gal(b1-4)GlcNAc(b1-6)[Gal(b1-3)]GalNAc
# Summary of the method: as §1
# [19] = molecular target: GlcNAc(b1-3)Gal(b1-4)GlcNAc(b1-6)[GlcNAc(b1-3)Gal(b1-3)]GalNAc
# Summary of the method: as §1
# [20] = molecular target: GlcNAc(b1-3)Gal(b1-4)GlcNAc(b1-6)[GlcNAc(b1-3)]Gal(b1-4)GlcNAc
# Summary of the method: as §1
# GlcNAc(b1-3)GalNAc = molecular target: GlcNAc(b1-3)GalNAc
# Summary of the method: as §1
# GlcNAc(b1-3)Man = molecular target: GlcNAc(b1-3)Man
# Summary of the method: as §1
# [21] = molecular target: GlcNAc(b1-3)[GlcNAc(b1-4)][GlcNAc(b1-6)]GlcNAc
# Summary of the method: as §1
# [22] = molecular target: GlcNAc(b1-3)[GlcNAc(b1-6)]Gal(b1-4)GlcNAc
# Summary of the method: as §1
# [23] = molecular target: GlcNAc(b1-3)[GlcNAc(b1-6)]GalNAc
# Summary of the method: as §1
# [24] = molecular target: GlcNAc(b1-4)Gal(b1-4)GlcNAc
# Summary of the method: as §1
# GlcNAc(b1-4)GlcNAc = molecular target: GlcNAc(b1-4)GlcNAc
# Summary of the method: as §1
# [25] = molecular target: GlcNAc(b1-4)GlcNAc(b1-4)GlcNAc
# Summary of the method: as §1
# [26] = molecular target: GlcNAc(b1-4)GlcNAc(b1-4)GlcNAc(b1-4)GlcNAc(b1-4)GlcNAc
# Summary of the method: as §1
# [27] = molecular target: GlcNAc(b1-4)GlcNAc(b1-4)GlcNAc(b1-4)GlcNAc(b1-4)GlcNAc(b1-4)GlcNAc
# Summary of the method: as §1
# [28] = molecular target: GlcNAc(b1-4)[GlcNAc(b1-6)]GalNAc
# Summary of the method: as §1
# [29] = molecular target: GlcNAc(b1-6)Gal(b1-4)GlcNAc
# Summary of the method: as §1
# GlcNAc(b1-6)GalNAc = molecular target: GlcNAc(b1-6)GalNAc
# Summary of the method: as §1
# [30] = molecular target: GlcNAc6S(b1-3)Gal(b1-4)GlcNAc
# Summary of the method: as §1
# Kdn(a2-3)Gal(b1-3)GalNAc = molecular target: Kdn(a2-3)Gal(b1-3)GalNAc
# Summary of the method: as §1
# Kdn(a2-3)Gal(b1-3)GlcNAc = molecular target: Kdn(a2-3)Gal(b1-3)GlcNAc
# Summary of the method: as §1
# Kdn(a2-3)Gal(b1-4)Glc = molecular target: Kdn(a2-3)Gal(b1-4)Glc
# Summary of the method: as §1
# Kdn(a2-3)Gal(b1-4)GlcNAc = molecular target: Kdn(a2-3)Gal(b1-4)GlcNAc
# Summary of the method: as §1
# [31] = molecular target: Kdn(a2-3)Gal(b1-4)[Fuc(a1-3)]GlcNAc
# Summary of the method: as §1
# Kdn(a2-6)Gal(b1-4)GlcNAc = molecular target: Kdn(a2-6)Gal(b1-4)GlcNAc
# Summary of the method: as §1
# [32] = molecular target: Man(a1-2)Man(a1-2)Man(a1-3)Man
# Summary of the method: as §1
# [33] = molecular target: Man(a1-2)Man(a1-2)Man(a1-6)[Man(a1-3)]Man
# Summary of the method: as §1
# Man(a1-2)Man(a1-3)Man = molecular target: Man(a1-2)Man(a1-3)Man
# Summary of the method: as §1
# [34] = molecular target: Man(a1-2)Man(a1-3)[Man(a1-2)Man(a1-6)]Man
# Summary of the method: as §1
binder,measurement,setting,value
EULS2 M4 (Oryza sativa) (protein) MVYCRANPNYAMTARNGAVVLAPANPKDEYQHWIKDMRWSTSIKDEEGYPAFALVNKATGQAIKHSLGQSHPVRLVPYNPEVMDESVLWTESRDVGNGFRCIRMVNNIYLNFDAFHGDKYHGGVRDGTDIVLWKWCEGDSLRWKIQPYYILEQKLISEEDLNSAVDHHHHHH,glycan array binding signal (z-score),GlcNAc(b1-3)Gal(b1-4)Glc,-0.248
same,glycan array binding signal (z-score),[1],-0.37
same,glycan array binding signal (z-score),[2],-0.555
same,glycan array binding signal (z-score),[3],-0.274
same,glycan array binding signal (z-score),[4],0.417
same,glycan array binding signal (z-score),[5],-0.562
same,glycan array binding signal (z-score),[6],0.167
same,glycan array binding signal (z-score),[7],-0.235
same,glycan array binding signal (z-score),[8],-0.364
same,glycan array binding signal (z-score),[9],-0.118
same,glycan array binding signal (z-score),[10],-0.034
same,glycan array binding signal (z-score),[11],-0.526
same,glycan array binding signal (z-score),[12],-0.223
same,glycan array binding signal (z-score),[13],-0.185
same,glycan array binding signal (z-score),[14],-0.528
same,glycan array binding signal (z-score),[15],0.729
same,glycan array binding signal (z-score),[16],0.752
same,glycan array binding signal (z-score),[17],-0.341
same,glycan array binding signal (z-score),[18],-0.431
same,glycan array binding signal (z-score),[19],-0.505
same,glycan array binding signal (z-score),[20],-0.401
same,glycan array binding signal (z-score),GlcNAc(b1-3)GalNAc,-0.116
same,glycan array binding signal (z-score),GlcNAc(b1-3)Man,1.37
same,glycan array binding signal (z-score),[21],-0.222
same,glycan array binding signal (z-score),[22],0.27
same,glycan array binding signal (z-score),[23],-0.301
same,glycan array binding signal (z-score),[24],1.09
same,glycan array binding signal (z-score),GlcNAc(b1-4)GlcNAc,-0.495
same,glycan array binding signal (z-score),[25],-0.101
same,glycan array binding signal (z-score),[26],-0.557
same,glycan array binding signal (z-score),[27],-0.23
same,glycan array binding signal (z-score),[28],0.115
same,glycan array binding signal (z-score),[29],-0.589
same,glycan array binding signal (z-score),GlcNAc(b1-6)GalNAc,-0.405
same,glycan array binding signal (z-score),[30],-0.436
same,glycan array binding signal (z-score),Kdn(a2-3)Gal(b1-3)GalNAc,-0.641
same,glycan array binding signal (z-score),Kdn(a2-3)Gal(b1-3)GlcNAc,-0.378
same,glycan array binding signal (z-score),Kdn(a2-3)Gal(b1-4)Glc,-0.413
same,glycan array binding signal (z-score),Kdn(a2-3)Gal(b1-4)GlcNAc,-0.2
same,glycan array binding signal (z-score),[31],-0.169
same,glycan array binding signal (z-score),Kdn(a2-6)Gal(b1-4)GlcNAc,-0.451
same,glycan array binding signal (z-score),[32],-0.573
same,glycan array binding signal (z-score),[33],0.149
same,glycan array binding signal (z-score),Man(a1-2)Man(a1-3)Man,-0.18
same,glycan array binding signal (z-score),[34],-0.33
